The labels stand for the following.
B1: GPR68, Q15743 (parent)
chain: MGNITADNSSMSCTIDHTIHQTLAPVVYVTVLVVGFPANCLSLYFGYLQIKARNELGVYLCNLTVADLFYICSLPFWLQYVLQHDNWSHGDLSCQVCGILLYENIYISVGFLCCISVDRYLAVAHPFRFHQFRTLKAAVGVSVVIWAKELLTSIYFLMHEEVIEDENQHRVCFEHYPIQAWQRAINYYRFLVGFLFPICLLLASYQGILRAVRRSHGTQKSRKDQIQRLVLSTVVIFLACFLPYHVLLLVRSVWEASCDFAKGVFNAYHFSLLLTSFNCVADPVLYCFVSETTHRDLARLRGACLAFLTCSRTGRAREAYPLGAPEASGKSGAQGEEPELLTKLHPAFQTPNSPGSGGFPTGRLA

The variants in data set [1] derive from B1. In words: cAMP reporter score (Enrich2 score, wild type = 0); higher = more signal; HEK293T, FACS bins.
Variants of B1 are the subject of data set [2]. The data set is described as follows: surface expression score (Enrich2 score, wild type = 0); higher = more signal; HEK293T, FACS bins.

The least precise scores are not listed. The source holds two more conditions with little spread; they are left out. Read del as a deletion of the residues named and ins as an insertion between two positions. For some assays here: The data file names ogerin without a concentration.

E255A: the cAMP reporter score was -0.361 in data set [1] (pH 5.5); -1.24 in data set [1] (pH 6); -1.15 in data set [1] (pH 6, modulator: ogerin); -1.77 in data set [1] (pH 6.5, modulator: ogerin). The surface expression score in data set [2] is -0.928.

Take E255S: the cAMP reporter score in data set [1] (pH 5.5) is -0.679; in data set [1] (pH 6) it was -0.223; in data set [1] (pH 6, modulator: ogerin), -0.973; in data set [1] (pH 6.5, modulator: ogerin), -1.04. For the same variant, the surface expression score in data set [2] was -0.131.

As for E255K, the cAMP reporter score in data set [1] (pH 5.5) was -1.56; in data set [1] (pH 6) it was -1.62; in data set [1] (pH 6, modulator: ogerin) it was -1.75; in data set [1] (pH 6.5, modulator: ogerin), -0.771. Moreover, the surface expression score in data set [2] was -1.53.

E255Y: the cAMP reporter score is -1.34 in data set [1] (pH 5.5); -0.839 in data set [1] (pH 6); -0.986 in data set [1] (pH 6, modulator: ogerin); -1.08 in data set [1] (pH 6.5, modulator: ogerin). Also, the surface expression score in data set [2] was -0.54.

Consider E255T, for which the cAMP reporter score in data set [1] (pH 5.5) was -0.424; in data set [1] (pH 6), 0.52; in data set [1] (pH 6, modulator: ogerin) it was -1.04; in data set [1] (pH 6.5, modulator: ogerin) it was -0.444. Moreover, the surface expression score in data set [2] stood at 1.35.

As for E255C, the cAMP reporter score in data set [1] (pH 5.5) is -1.31; in data set [1] (pH 6) it was -2.2; in data set [1] (pH 6.5, modulator: ogerin), -0.442.

For the variant E255R, the cAMP reporter score in data set [1] (pH 5.5) is -1.22; in data set [1] (pH 6) it was -1.14; in data set [1] (pH 6, modulator: ogerin) it was -1.49; in data set [1] (pH 6.5, modulator: ogerin) it was -1.51. Also, in data set [2], the surface expression score was -1.45.

For the variant A256_S257del, the cAMP reporter score in data set [1] (pH 5.5) was -0.69; in data set [1] (pH 6), -0.52; in data set [1] (pH 6, modulator: ogerin) it was -1.3; in data set [1] (pH 6.5, modulator: ogerin) it was -0.395. The surface expression score in data set [2] was -1.29.

Regarding W254_E255insGS, the cAMP reporter score was -1.2 in data set [1] (pH 5.5); -0.867 in data set [1] (pH 6); -1.45 in data set [1] (pH 6, modulator: ogerin); -1.29 in data set [1] (pH 6.5, modulator: ogerin). Besides, in data set [2], the surface expression score turned out to be 0.969.

E255_A256insGS: the cAMP reporter score is -0.684 in data set [1] (pH 5.5); -0.556 in data set [1] (pH 6); -1.11 in data set [1] (pH 6, modulator: ogerin); -0.911 in data set [1] (pH 6.5, modulator: ogerin). For the same variant, in data set [2], the surface expression score came to 0.771.

Consider R251_S252del, for which the cAMP reporter score was -1.6 in data set [1] (pH 5.5); -1.2 in data set [1] (pH 6); -1.99 in data set [1] (pH 6, modulator: ogerin); -1.17 in data set [1] (pH 6.5, modulator: ogerin). Moreover, the surface expression score in data set [2] is -2.21.

For the variant W254_A256del, the cAMP reporter score in data set [1] (pH 5.5) is -0.453; in data set [1] (pH 6) it was 0.418; in data set [1] (pH 6, modulator: ogerin) it was -2.73; in data set [1] (pH 6.5, modulator: ogerin), -1.99. In addition, the surface expression score in data set [2] was -1.5.

As for L248_V250del, the cAMP reporter score was -0.853 in data set [1] (pH 5.5); -0.944 in data set [1] (pH 6); -1.78 in data set [1] (pH 6, modulator: ogerin); -1.41 in data set [1] (pH 6.5, modulator: ogerin). Moreover, the surface expression score in data set [2] was -2.2.

On to V253K, for which the cAMP reporter score is 1.12 in data set [1] (pH 5.5); 1.11 in data set [1] (pH 6, modulator: ogerin); -0.071 in data set [1] (pH 6.5, modulator: ogerin). Also, the surface expression score in data set [2] is -0.193.

As to V253A, the cAMP reporter score is 0.754 in data set [1] (pH 5.5); 0.316 in data set [1] (pH 6); 1.42 in data set [1] (pH 6, modulator: ogerin); -0.006 in data set [1] (pH 6.5, modulator: ogerin). For the same variant, the surface expression score in data set [2] was found to be 0.493.

As for V253C, the cAMP reporter score in data set [1] (pH 5.5) was 1.99; in data set [1] (pH 6), -0.01; in data set [1] (pH 6, modulator: ogerin) it was -0.52; in data set [1] (pH 6.5, modulator: ogerin) it was -0.011. Moreover, the surface expression score in data set [2] was -0.391.

As for V253H, the cAMP reporter score in data set [1] (pH 5.5) was 0.387; in data set [1] (pH 6), -0.187; in data set [1] (pH 6, modulator: ogerin), 0.451; in data set [1] (pH 6.5, modulator: ogerin), -0.417. Besides, the surface expression score in data set [2] is -0.061.

For V253M, the cAMP reporter score in data set [1] (pH 5.5) was 0.149; in data set [1] (pH 6), 0.127; in data set [1] (pH 6, modulator: ogerin), 0.129; in data set [1] (pH 6.5, modulator: ogerin), -0.321. Further, the surface expression score in data set [2] was -0.114.

For V253L, the cAMP reporter score in data set [1] (pH 5.5) is -0.806; in data set [1] (pH 6) it was -2; in data set [1] (pH 6, modulator: ogerin) it was -1.48; in data set [1] (pH 6.5, modulator: ogerin) it was -1.22. The surface expression score in data set [2] is -0.91.

For V253S, the cAMP reporter score in data set [1] (pH 5.5) is 0.615; in data set [1] (pH 6), 0.287; in data set [1] (pH 6, modulator: ogerin), 0.84; in data set [1] (pH 6.5, modulator: ogerin), 0.335. For the same variant, the surface expression score in data set [2] came out at 0.046.

For V253R, the cAMP reporter score in data set [1] (pH 5.5) was 0.913; in data set [1] (pH 6), -0.373; in data set [1] (pH 6, modulator: ogerin) it was 0.772; in data set [1] (pH 6.5, modulator: ogerin) it was -0.048. Moreover, the surface expression score in data set [2] is 0.412.

Consider V253T, for which the cAMP reporter score in data set [1] (pH 5.5) was 0.33; in data set [1] (pH 6, modulator: ogerin), 1.28; in data set [1] (pH 6.5, modulator: ogerin) it was 0.545. In addition, the surface expression score in data set [2] worked out at 0.293.

Consider V253E, for which the cAMP reporter score is 1.28 in data set [1] (pH 5.5); 1.39 in data set [1] (pH 6, modulator: ogerin); -0.555 in data set [1] (pH 6.5, modulator: ogerin). For the same variant, the surface expression score in data set [2] turned out to be 0.262.

For the variant V253N, the cAMP reporter score was -1.08 in data set [1] (pH 5.5); -1.21 in data set [1] (pH 6); -1.59 in data set [1] (pH 6, modulator: ogerin); -0.287 in data set [1] (pH 6.5, modulator: ogerin). The surface expression score in data set [2] was -1.46.

As for V253W, the cAMP reporter score came to 1.02 in data set [1] (pH 5.5); 2.68 in data set [1] (pH 6); 1.82 in data set [1] (pH 6, modulator: ogerin); 0.892 in data set [1] (pH 6.5, modulator: ogerin). The surface expression score in data set [2] worked out at 2.07.

With V253Q, the cAMP reporter score in data set [1] (pH 5.5) is -0.238; in data set [1] (pH 6, modulator: ogerin), 0.14; in data set [1] (pH 6.5, modulator: ogerin), -1.73. In data set [2], the surface expression score was 0.222.

As to V253F, the cAMP reporter score in data set [1] (pH 5.5) came out at 0.64; in data set [1] (pH 6) it was 2.29; in data set [1] (pH 6, modulator: ogerin), 0.229; in data set [1] (pH 6.5, modulator: ogerin), 0.908. Moreover, the surface expression score in data set [2] was found to be 0.407.

Consider V253G, for which the cAMP reporter score came out at 0.608 in data set [1] (pH 5.5); 0.305 in data set [1] (pH 6); 0.241 in data set [1] (pH 6, modulator: ogerin); 0.244 in data set [1] (pH 6.5, modulator: ogerin). For the same variant, the surface expression score in data set [2] is -0.4.

For V253P, the cAMP reporter score is -0.422 in data set [1] (pH 5.5); -1.46 in data set [1] (pH 6); -2.19 in data set [1] (pH 6, modulator: ogerin); -1.02 in data set [1] (pH 6.5, modulator: ogerin). Besides, the surface expression score in data set [2] is -1.8.

With V253D, the cAMP reporter score was 0.297 in data set [1] (pH 5.5); -0.849 in data set [1] (pH 6); -0.747 in data set [1] (pH 6, modulator: ogerin); -0.203 in data set [1] (pH 6.5, modulator: ogerin). In addition, the surface expression score in data set [2] was -1.85.

Turning to V253I, the cAMP reporter score in data set [1] (pH 5.5) worked out at 2.07; in data set [1] (pH 6), 2.52; in data set [1] (pH 6, modulator: ogerin) it was 1.91; in data set [1] (pH 6.5, modulator: ogerin) it was 2.95. In addition, the surface expression score in data set [2] was determined as 1.09.
